Source: PMC8027073
These are yes or no findings as the source states them, for the method shown. In cells and extracts the contact can be indirect. Some binding calls cover weakened binding; strength is not graded here. Tags and fused reporters may be left off the sequences shown. One block for each molecule: values may come before it.

How the values were obtained:
Test in all cases: co-IP; HEK293T cells co-transfected with HA-tagged CSF1R and Myc-tagged TREM2 constructs, lysed after 24 h in 1% TNEN (50 mM Tris-HCl pH 8.0, 150 mM NaCl, 2 mM EDTA, 1% NP-40); immunoprecipitated with anti-Myc or HA antibodies and Protein G Dynabeads; immunoblot
[1] = target: T1, Myc-tagged full-length TREM2 (triggering receptor expressed on myeloid cells-2) (UniProt Q9NZC2)
T1 sequence: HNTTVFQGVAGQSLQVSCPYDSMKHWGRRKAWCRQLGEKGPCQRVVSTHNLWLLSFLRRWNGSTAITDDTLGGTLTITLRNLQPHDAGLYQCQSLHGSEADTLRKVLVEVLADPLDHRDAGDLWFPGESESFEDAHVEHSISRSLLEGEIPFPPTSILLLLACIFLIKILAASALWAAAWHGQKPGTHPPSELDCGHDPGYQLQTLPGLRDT

[2] = target: T2, TREM2-NTF (1 aa -171 aa), Myc-tagged (UniProt Q9NZC2)
T2 sequence: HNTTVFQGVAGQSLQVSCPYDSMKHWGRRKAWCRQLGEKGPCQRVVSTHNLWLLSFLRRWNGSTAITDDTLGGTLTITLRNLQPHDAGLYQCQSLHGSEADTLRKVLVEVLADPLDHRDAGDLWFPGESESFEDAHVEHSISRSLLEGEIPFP

[3] = target: T3, TREM2-CTF (164 aa - 230 aa), Myc-tagged (UniProt Q9NZC2)
T3 sequence: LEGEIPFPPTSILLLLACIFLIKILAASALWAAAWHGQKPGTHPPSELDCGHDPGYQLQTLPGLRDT

- binding [1]: no binding
Molecule: CSF1R amino-terminal fragment (NTF, 1 aa - 514 aa), HA-tagged (from UniProt P07333 20-514) (domain or fragment)

- binding [2]: binds
- binding [1]: binds
- binding [3]: binds
Molecule: HA-tagged full-length CSF1R (colony-stimulating factor 1 receptor) (from UniProt P07333 20-972)

- binding [1]: binds
B1: CSF1R carboxyl-terminal fragment (CTF, 514 aa - 972 aa), HA-tagged (domain or fragment, UniProt P07333 514-972)
chain: LFTPVVVACMSIMALLLLLLLLLLYKYKQKPKYQVRWKIIESYEGNSYTFIDPTQLPYNEKWEFPRNNLQFGKTLGAGAFGKVVEATAFGLGKEDAVLKVAVKMLKSTAHADEKEALMSELKIMSHLGQHENIVNLLGACTHGGPVLVITEYCCYGDLLNFLRRKAEAMLGPSLSPGQDPEGGVDYKNIHLEKKYVRRDSGFSSQGVDTYVEMRPVSTSSNDSFSEQDLDKEDGRPLELRDLLHFSSQVAQGMAFLASKNCIHRDVAARNVLLTNGHVAKIGDFGLARDIMNDSNYIVKGNARLPVKWMAPESIFDCVYTVQSDVWSYGILLWEIFSLGLNPYPGILVNSKFYKLVKDGYQMAQPAFAPKNIYSIMQACWALEPTHRPTFQQICSFLQEQAQEDRRERDYTNLPSSSRSGGSGSSSSELEEESSSEHLTCCEQGDIAQPLLQPNNYQFC
